Source: ChEMBL document CHEMBL5308541, “MAIP: An Open-Source Tool to Enrich High-Throughput Screening Output and Identify Novel, Druglike Molecules with Antimalarial Activity” (ACS Med Chem Lett, 2023)
About 540 (0.36%) of roughly 150,000 compounds showed an effect of 50% or more. This is one part of the list.

The compounds below were run on Plasmodium falciparum (assay: Primary screen in NF54 nanoGlo assay, in single point, at 2uM, 72h; a lower Z score goes with more inhibition). Details: timepoint 72 hour.
Type: functional, Erythrocyte

**Q.** With Cc1cc2n(n1)CCCN(c1cc(-c3ccccc3)nc3cc(C)nn13)C2 as the compound, how does the “% Inhibition” value read?
**A.** The value was -3%.

**Q.** And the Z score?
**A.** Its Z score is 0.64.

**Q.** CCCCOC(C)C(=O)N1CCCC(c2nc(=O)[nH][nH]2)C1 (stereo unspecified) was tested. Which “% Inhibition” value did it give?
**A.** The value was -11%.

**Q.** What about the Z score of the same compound?
**A.** Its Z score is 2.27.

**Q.** What does the source list for CC1CCCCC1OCCNCc1cnc(N2CCN(C)CC2)nc1 (stereo unspecified)?
**A.** % Inhibition: 2%; Z score: -0.35

**Q.** With C[C@@H](CS(C)(=O)=O)N(C)c1ncnc2cccc(F)c12 as the compound, how does the “% Inhibition” value read?
**A.** Its value is 6%.

**Q.** What about the Z score of the same compound?
**A.** The Z score was -1.06.

**Q.** For CN1CCN(CCOc2ccccc2CN2CCc3[nH]cnc3[C@H]2c2cccnc2)CC1, which “% Inhibition” value is on record?
**A.** The value was -2%.

**Q.** What about the Z score of the same compound?
**A.** Its Z score is 0.41.

**Q.** How did the “% Inhibition” value turn out when Nc1ccc2c(NCc3cccc(-c4ccccn4)c3)ncnc2n1 was run?
**A.** Its value is -1%.

**Q.** And the Z score?
**A.** Its Z score is 0.2.

**Q.** Which results are given for CNc1cc(-c2ccc(C(=O)NCCN3CCOCC3)cc2)nc(N)n1?
**A.** % Inhibition: -8%; Z score: 1.38

**Q.** CN(CCNC(=O)c1cc2occc2[nH]1)C(=O)c1cc2occc2[nH]1 was tested. Which “% Inhibition” value did it give?
**A.** The value was -11%.

**Q.** What about the Z score of the same compound?
**A.** The Z score was 1.82.

**Q.** Which results are given for Cc1nc(Nc2ccc(N3CCNC(=O)C3)nc2)cc(-c2cccnc2)n1?
**A.** % Inhibition: -5%; Z score: 1.01

**Q.** How did the “% Inhibition” value turn out when CC(C)(C)OC(=O)N1CCC[C@@H]1CN1CCN(C2CCCC2)CC1 was run?
**A.** Its value is -16%.

**Q.** And the Z score?
**A.** The Z score was 3.37.

**Q.** Cc1ccc(NC(C)(C)C(=O)N2CCC(N3CCC(O)CC3)CC2)cc1 was tested. Which “% Inhibition” value did it give?
**A.** Its value is -3%.

**Q.** What about the Z score of the same compound?
**A.** Its Z score is 0.57.

**Q.** How did the “% Inhibition” value turn out when Cc1cnccc1NCCNCc1nc2ccccc2[nH]1 was run?
**A.** The value was -2%.

**Q.** And the Z score?
**A.** Its Z score is 0.37.

**Q.** For Cc1[nH]c2ccccc2c1CC(=O)N1CCC(Nc2ncccn2)C(O)C1 (stereo unspecified), which “% Inhibition” value is on record?
**A.** Its value is -3%.

**Q.** What about the Z score of the same compound?
**A.** Its Z score is 0.43.

**Q.** COC1CCOCC1NC(=O)NCC(C)(C)N1CCCCC1 (stereo unspecified) was tested. Which “% Inhibition” value did it give?
**A.** Its value is -4%.

**Q.** What about the Z score of the same compound?
**A.** Its Z score is 0.85.

**Q.** Which results are given for Fc1ccc(Oc2ccnc(CNc3ncnc4[nH]ncc34)c2)cc1?
**A.** % Inhibition: -12%; Z score: 2.44

**Q.** What does the source list for CC1CCC(C)N1CCN1CCN(C(=O)NC2CCC3CNCC3C2)CC1 (stereo unspecified)?
**A.** % Inhibition: -7%; Z score: 1.25

**Q.** For O=C(NC(Cc1cccc(F)c1)c1cccc(F)c1)N1CCCC1CCO (stereo unspecified), which “% Inhibition” value is on record?
**A.** The value was 2%.

**Q.** What about the Z score of the same compound?
**A.** Its Z score is -0.25.

**Q.** With O=C1CN(C2CCN(CC3CCCCC3)CC2)[C@]2(CCOC2)CN1Cc1ccccc1 as the compound, how does the “% Inhibition” value read?
**A.** Its value is -8%.

**Q.** What about the Z score of the same compound?
**A.** The Z score was 1.39.

**Q.** For Nc1nc(NCCOc2cccc3cccnc23)cc([C@H]2C[C@@H](O)C2)n1, which “% Inhibition” value is on record?
**A.** Its value is -9%.

**Q.** What about the Z score of the same compound?
**A.** The Z score was 1.65.

**Q.** How did the “% Inhibition” value turn out when CC(C)CN1CC[C@H](CN(C)C(=O)c2cc(COc3ccc4ncccc4c3)on2)C1 was run?
**A.** The value was -10%.

**Q.** And the Z score?
**A.** Its Z score is 1.73.

**Q.** How did the “% Inhibition” value turn out when Cn1ccnc(N2CCC[C@H](NC3CCN(CC(F)(F)F)CC3)C2)c1=O was run?
**A.** The value was -9%.

**Q.** And the Z score?
**A.** The Z score was 1.43.

**Q.** For O=C(NCC1CCCN1C1CCCCC1)N1CCN(C2CCNC2)CC1 (stereo unspecified), which “% Inhibition” value is on record?
**A.** The value was -12%.

**Q.** What about the Z score of the same compound?
**A.** Its Z score is 1.8.

**Q.** What does the source list for O=C(Nc1ccc2[nH]ccc2c1)[C@H](Oc1ccc(F)c(F)c1)c1ccccc1?
**A.** % Inhibition: -16%; Z score: 2.87

**Q.** Cc1ccc(NC(=O)NCCC2CCN(C)CC2)cc1NC(=O)NCCC1CCN(C)CC1 was tested. Which “% Inhibition” value did it give?
**A.** Its value is -8%.

**Q.** What about the Z score of the same compound?
**A.** Its Z score is 1.2.

**Q.** What does the source list for COC[C@@H](O)CN1CCC(NCc2cccc(-c3ccccn3)c2)CC1?
**A.** % Inhibition: -2%; Z score: 0.26

**Q.** What does the source list for Cc1ccc(-c2cc(C(=O)N3CCN(c4ncnc5ccccc45)CC3)n[nH]2)cc1?
**A.** % Inhibition: -6%; Z score: 1.07

**Q.** Which “% Inhibition” value does the source give for Cc1nsc(N[C@H]2CC[C@H](Nc3ccccn3)CC2)c1C#N here?
**A.** Its value is 2%.

**Q.** What about the Z score of the same compound?
**A.** The Z score was -0.48.

**Q.** How did the “% Inhibition” value turn out when c1ccc(Cc2noc(CCNc3cc(C4CCNCC4)ncn3)n2)cc1 was run?
**A.** Its value is 2%.

**Q.** And the Z score?
**A.** Its Z score is -0.32.

**Q.** How did the “% Inhibition” value turn out when O=C(c1ccc(OCC2CCOCC2)nc1)N1CCN(c2nsc3ccccc23)CC1 was run?
**A.** Its value is 10%.

**Q.** And the Z score?
**A.** Its Z score is -1.81.

**Q.** What does the source list for Cc1ccc(Nc2nc(NCCN3CCOCC3)nc3nccnc23)c(C)c1?
**A.** % Inhibition: -1%; Z score: 0.21

**Q.** For COc1ccc(CNCC2CCN(C(C)=O)CC2)cc1OCCN1CCOCC1, which “% Inhibition” value is on record?
**A.** Its value is -4%.

**Q.** What about the Z score of the same compound?
**A.** The Z score was 0.66.

**Q.** Which “% Inhibition” value does the source give for CO[C@@H](C)c1cccc(NC(=O)C(=O)Nc2ccc3[nH]ccc3c2)c1 here?
**A.** Its value is 6%.

**Q.** And the Z score?
**A.** The Z score was -0.85.

**Q.** With CO[C@H]1C[C@H](NC(=O)Nc2ccc(Oc3cccc(S(C)(=O)=O)c3)cc2)C1 as the compound, how does the “% Inhibition” value read?
**A.** The value was -8%.

**Q.** And the Z score?
**A.** Its Z score is 1.44.

**Q.** What does the source list for NC(=O)c1cccnc1N1CCN(c2ncnc3[nH]ccc23)CC1?
**A.** % Inhibition: 2%; Z score: -0.28

**Q.** How did the “% Inhibition” value turn out when O=C(NCCN1CCC[C@H](c2ccccc2)C1)N1CCN(c2ccncc2)CC1 was run?
**A.** Its value is 12%.

**Q.** And the Z score?
**A.** Its Z score is -2.14.

**Q.** Which “% Inhibition” value does the source give for Cn1cc([C@H]2CCCN(S(=O)(=O)c3c(F)cccc3F)C2)cn1 here?
**A.** The value was 0%.

**Q.** What about the Z score of the same compound?
**A.** Its Z score is -0.07.

**Q.** Which results are given for Fc1cccc(-c2cnc(C(F)(F)F)nc2C2CCN(Cc3nc4ccccc4[nH]3)CC2)c1?
**A.** % Inhibition: -3%; Z score: 0.51

**Q.** How did the “% Inhibition” value turn out when CCC(CC)(CNC(=O)OC(C)(C)C)NCc1cccc(COC)c1 was run?
**A.** Its value is 7%.

**Q.** What about the Z score of the same compound?
**A.** The Z score was -1.43.

**Q.** How did the “% Inhibition” value turn out when CCCCOc1cc(F)ccc1-c1ccc(N(C)C)nn1 was run?
**A.** The value was -11%.

**Q.** What about the Z score of the same compound?
**A.** Its Z score is 1.92.

**Q.** With CN(C)[C@@H](C(=O)NCCCNc1ncccn1)c1cc(Cl)cc(Cl)c1 as the compound, how does the “% Inhibition” value read?
**A.** The value was -5%.

**Q.** What about the Z score of the same compound?
**A.** Its Z score is 0.82.

**Q.** With c1ccc2c(c1)CN(c1ncnc3[nH]ccc13)CC1(CCOCC1)O2 as the compound, how does the “% Inhibition” value read?
**A.** Its value is 25%.

**Q.** And the Z score?
**A.** Its Z score is -4.48.

**Q.** How did the “% Inhibition” value turn out when Cc1nn(C)c2nc(-c3ccccn3)nc(N[C@H]3CC[C@@H](N)CC3)c12 was run?
**A.** The value was -5%.

**Q.** What about the Z score of the same compound?
**A.** Its Z score is 0.97.

**Q.** Which “% Inhibition” value does the source give for CCOc1ccc2nc(CN3CCC(O)(c4cccnc4)CC3)ccc2c1 here?
**A.** The value was 1%.

**Q.** And the Z score?
**A.** The Z score was -0.2.

**Q.** For CCc1c(-c2cccc(C(=O)NC[C@@H]3CCCN3)c2)cnn1C, which “% Inhibition” value is on record?
**A.** The value was 2%.

**Q.** And the Z score?
**A.** Its Z score is -0.53.

**Q.** With N#Cc1cnc(NCCCN2CCC[C@H](O)C2)nc1N as the compound, how does the “% Inhibition” value read?
**A.** The value was 9%.

**Q.** And the Z score?
**A.** Its Z score is -1.32.

**Q.** Which results are given for Cn1cccc1-c1cc(C(=O)NC[C@@H](c2cccnc2)N2CCCCC2)[nH]n1?
**A.** % Inhibition: -4%; Z score: 0.54

**Q.** How did the “% Inhibition” value turn out when CN1C(=O)N(CN2CCCCC2)C2C1N(C)C(=O)N2CN1CCCCC1 (stereo unspecified) was run?
**A.** Its value is -16%.

**Q.** What about the Z score of the same compound?
**A.** Its Z score is 2.8.

**Q.** Which “% Inhibition” value does the source give for COc1ccnc(CN2CCC(N3CCC[C@H](C(=O)N4CCCC4)C3)CC2)c1OC here?
**A.** The value was -5%.

**Q.** What about the Z score of the same compound?
**A.** Its Z score is 0.87.

**Q.** What does the source list for N#Cc1ccc(N2CCC(Nc3ccncc3C(N)=O)CC2)nc1?
**A.** % Inhibition: 2%; Z score: -0.42

**Q.** Which “% Inhibition” value does the source give for COCc1nnc(-c2ccc(Cl)cc2OC)[nH]1 here?
**A.** Its value is -13%.

**Q.** What about the Z score of the same compound?
**A.** Its Z score is 1.94.

**Q.** Which “% Inhibition” value does the source give for C[C@@H](c1ccc(-c2cnn(CCO)c2)cc1)N1CCCCC1 here?
**A.** Its value is 1%.

**Q.** And the Z score?
**A.** The Z score was -0.17.

**Q.** Which “% Inhibition” value does the source give for OC[C@H]1CCCCN1CCNc1ncnc2[nH]ccc12 here?
**A.** Its value is -10%.

**Q.** And the Z score?
**A.** The Z score was 2.16.

**Q.** Cc1cc(NC2COCC2N2CCOCC2)nc(-c2ccccc2)n1 (stereo unspecified) was tested. Which “% Inhibition” value did it give?
**A.** The value was 1%.

**Q.** What about the Z score of the same compound?
**A.** Its Z score is -0.1.
